Test results as given in patent US20160137740A1 (AstraZeneca / MedImmune, published 2016).

Legend:
Mouse OX40 = molecular target: T1, Mouse OX40 (mouse, UniProt P47741 20-272); assay: flow cytometry, transfected 293F cells, column Mouse OX40 [FIGURE 32A con't]
T1 construct: also called mOX40; murine OX40
T1 sequence: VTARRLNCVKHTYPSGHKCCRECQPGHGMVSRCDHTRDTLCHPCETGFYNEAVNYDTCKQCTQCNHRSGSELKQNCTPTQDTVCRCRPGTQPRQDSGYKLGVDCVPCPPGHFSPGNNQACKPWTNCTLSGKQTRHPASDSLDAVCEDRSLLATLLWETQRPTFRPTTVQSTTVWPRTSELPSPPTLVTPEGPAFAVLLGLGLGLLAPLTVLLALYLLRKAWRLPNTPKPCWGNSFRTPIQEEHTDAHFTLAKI
Description: Forty-eight hours after transfection, HEK293F cells were incubated with 1 μg/mL of OX40mAb24 for 1 hour on ice in PBS. To detect bound OX40mAb24 by flow cytometry, the cells were washed 3-times with cold PBS, incubated with 1 μg/mL of Alexa480-conjugated anti-human IgG antibody for 1 hr on ice, and then analyzed using the LSRII flow cytometer.
The expression levels of all chimeric OX40 variants were also monitored by flow cytometry; the cells were incubated with a mixture of sheep anti-human OX40 and goat anti-mouse OX40 polyclonal antibodies at 1 μg/mL in PBS for 1 hour on ice. Cells were washed 3-times with cold PBS, and then incubated with a mixture of Alexa480-conjugated anti-goat and anti-sheep IgG polyclonal antibodies. After washing 3 times with cold PBS, cells were analyzed with the LSRII flow cytometer.

[1] = molecular target: T2, Human TNFRSF9 (CD137) expressed on HEK293 cells (human, UniProt Q07011 24-255); assay: flow cytometry histogram, transiently transfected HEK293 cells, goat anti-human AlexaFluor 647 secondary [FIGURE 4A-B, con't), panel A (cont'd]
T2 construct: whole, on cells; also called 4-1BB
T2 sequence (Q07011 24-255): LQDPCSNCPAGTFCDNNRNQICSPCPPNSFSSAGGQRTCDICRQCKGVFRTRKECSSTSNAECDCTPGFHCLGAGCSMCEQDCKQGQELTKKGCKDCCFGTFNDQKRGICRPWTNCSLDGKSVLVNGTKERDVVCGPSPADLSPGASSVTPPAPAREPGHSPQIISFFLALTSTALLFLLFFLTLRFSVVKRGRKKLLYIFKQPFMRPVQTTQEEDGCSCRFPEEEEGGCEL
Text: (§1) cDNA constructs capable of directing the expression of individual TNFRSF members, when transfected into mammalian cells, were obtained from Origene Technologies, Rockville, Md. These cDNA constructs were amplified and purified by the Protein Sciences group at MedImmune in Gaithersburg, Md. for use in transient transfections. […] Forty-eight hours post transfection, cells were removed from tissue culture plates by trypsinization. […] Cells were then suspended in cold FACS buffer (PBS+2% FBS) and plated into 96 well non-tissue culture-treated plates for binding studies with TNFRSF member-specific mAbs (Table 3-3) and OX40mAb24.
(§2) For binding of antibodies or OX40mAb24, HEK cells were pelleted, FACS buffer removed, and cells suspended in FACS buffer containing 2 μg/mL propidium iodide (PI) and either a fluorochrome-labeled mAb, specific for the transfected TNFRSF member, at a concentration recommended by the manufacturer or with OX40mAb24 at a concentration of 1 μg/mL. For binding controls, cells were separately incubated with fluorochrome-labeled isotype control antibodies. […] Thereafter, cells incubated with fluorochrome-labeled monoclonal antibodies were washed in cold FACS buffer and then binding events collected and analyzed by flow cytometry using an LSRII flow cytometer (BD Biosciences, San Jose, Calif.) and FlowJo software, as described in Section 3.2.3. […]

[2] = molecular target: T3, Human TNFRSF14 (HVEM) expressed on HEK293 cells (human, UniProt Q92956 39-283); assay: as above
T3 construct: whole, on cells; also called TR2
T3 sequence (looked up): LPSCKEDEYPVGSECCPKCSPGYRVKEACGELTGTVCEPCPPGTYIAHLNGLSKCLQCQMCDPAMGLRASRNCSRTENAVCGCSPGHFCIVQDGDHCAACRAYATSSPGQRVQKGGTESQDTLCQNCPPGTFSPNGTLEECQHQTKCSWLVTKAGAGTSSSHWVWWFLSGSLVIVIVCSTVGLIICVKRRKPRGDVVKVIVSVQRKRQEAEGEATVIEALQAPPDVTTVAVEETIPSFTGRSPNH
Text: as §1, §2

Human OX40 [3] = molecular target: T4, Human OX40 (human, UniProt P43489 29-277); assay: flow cytometry on OX40-overexpressing Jurkat cells, 1 µg/mL
T4 construct: also called CD134; TNFRSF4
T4 sequence: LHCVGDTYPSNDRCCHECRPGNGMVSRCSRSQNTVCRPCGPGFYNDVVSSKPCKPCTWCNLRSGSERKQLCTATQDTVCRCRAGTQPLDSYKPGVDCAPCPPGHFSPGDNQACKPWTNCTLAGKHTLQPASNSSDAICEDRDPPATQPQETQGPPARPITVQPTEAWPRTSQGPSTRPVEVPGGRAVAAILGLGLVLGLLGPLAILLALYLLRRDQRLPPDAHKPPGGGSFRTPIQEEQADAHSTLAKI

Human OX40 [4] = molecular target: T4, Human OX40; assay: cell-based or functional assay
Human OX40 [5] = molecular target: T4, Human OX40; assay: flow cytometry on human OX40-overexpressing Jurkat NFkB-luciferase clone 64 cells, AlexaFluor 647 anti-human IgG secondary [panel C]
Description: Human OX40-overexpressing Jurkat NFκB-luciferase clone 64 cells were cultured in complete RPMI+10% FBS prior to binding experiments, without the need for activation.
OX40mAb24 (10 μg/mL) or 9B12 (10 μg/mL) was diluted over a 17 point 2-fold dilution series. OX40mAb24 was added to 100,000 cells (activated primary CD4⁺ T cells or human OX40-overexpressing Jurkat NFkB-luciferase clone 64 cells) per well and incubated for one hour at 4° C. For background binding subtraction, cells were incubated in the presence of secondary antibody alone. […] Following secondary antibody incubation, cells were washed and suspended in 100 μL FACS buffer for flow cytometry analysis on a BD LSRII flow cytometer as described below.

B1: OX40mAb24 (antibody, human IgG1, kappa)
heavy: QVQLQESGPGLVKPSQTLSLTCAVYGGSFSSGYWNWIRKHPGKGLEYIGYISYNGITYHNPSLKSRITINRDTSKNQYSLQLNSVTPEDTAVYYCARYKYDYDGGHAMDYWGQGTLVTVSSASTKGPSVFPLAPSSKSTSGGTAALGCLVKDYFPEPVTVSWNSGALTSGVHTFPAVLQSSGLYSLSSVVTVPSSSLGTQTYICNVNHKPSNTKVDKRV[skipping human IgG1 Fc]
light: DIQMTQSPSSLSASVGDRVTITCRASQDISNYLNWYQQKPGKAPKLLIYYTSKLHSGVPSRFSGSGSGTDYTLTISSLQPEDFATYYCQQGSALPWTFGQGTKVEIKRTVAAPSVFIFPPSDEQLKSGTASVVCLLNNFYPREAKVQWKVDNALQSGNSQESVTEQDSKDSTYSLSSTLTLSKADYEKHKVYACEVTHQGLSSPVTKSFNRGEC
notes: Humanized from 9B12; human IgG1 kappa; also called humanized anti-human OX40 IgG1κ monoclonal antibody
- binding result (Mouse OX40): no binding (tested: 1 µg/mL)
- binding result [1]: no binding (tested: 1 µg/mL)
- binding result [2]: no binding (tested: 1 µg/mL)
- ratio of MFI to secondary antibody alone (Human OX40 [3]): 48 fold
- EC50, NFκB-luciferase 2-cell assay, exp 1, Raji (Human OX40 [4]): 1.14 nM
- EC50, NFκB-luciferase 2-cell assay, exp 2, CD32A-expressing HEK (Human OX40 [4]): 0.437 nM
- EC50, NFκB-luciferase 2-cell assay, exp 3, CD32A-expressing HEK (Human OX40 [4]): 0.322 nM
- EC50, NFκB-luciferase 2-cell assay, exp 4, Raji (Human OX40 [4]): 1.04 nM
- EC50, NFκB-luciferase 2-cell assay, exp 5, CD32B-expressing HEK (Human OX40 [4]): 0.27 nM
- EC50, NFκB-luciferase 2-cell assay, exp 6, Raji (Human OX40 [4]): 0.796 nM
- EC50, NFκB-luciferase 2-cell assay, exp 7, CD32B-expressing HEK (Human OX40 [4]): 0.899 nM
- EC50, NFκB-luciferase 2-cell assay, exp 8, CD32B-expressing HEK (Human OX40 [4]): 0.671 nM
- EC50, NFκB-luciferase 2-cell assay, exp 9, Raji (Human OX40 [4]): 1.32 nM
- EC50, NFκB-luciferase 2-cell assay, exp 10, Raji (Human OX40 [4]): 1.26 nM
- EC50, NFκB-luciferase 2-cell assay, exp 11, CD32B-expressing HEK (Human OX40 [4]): 0.7 nM
- EC50, NFκB-luciferase 2-cell assay, exp 12, CD45+ cells, NSCLC (Human OX40 [4]): 0.0816 nM
- EC50, NFκB-luciferase 2-cell assay, exp 13, CD45+ cells, RCC (Human OX40 [4]): 0.337 nM
- EC50, NFκB-luciferase 2-cell assay, exp 14, CD45+ cells, NSCLC (Human OX40 [4]): 0.772 nM
- EC50, NFκB-luciferase 2-cell assay, exp 15, CD45+ cells, RCC (Human OX40 [4]): 1.41 nM
- EC50, NFκB-luciferase 2-cell assay, exp 16, CD32A-expressing HEK (Human OX40 [4]): 0.553 nM
- EC50 (read off the curve) (Human OX40 [5]): ~0.7 nM
